# Test results as given in the supplement of paper PMC8728848.
# Some of the results follow.
# Legend:
# Test in all cases: glycan array binding signal (z-score within array); higher = stronger binding
# Conditions in all cases: glycan notation: IUPAC condensed, linker removed
# [1] = biological target: Fuc(a1-2)[Gal(a1-3)]Gal(b1-3)GlcNAc(b1-6)GalNAc
# Outline: (§1)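 The binding signal is a Z-score computed within each array. Data were drawn from 3228 arrays in the Consortium for Functional Glycomics database, restricted to those with a known protein sequence. Scores were averaged over arrays of the same protein sequence at different concentrations or buffers, and over linkers, and negative values can be taken as non-binding.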
# [2] = biological target: Fuc(a1-2)[Gal(a1-3)]Gal(b1-4)Glc
# Outline: as §1
# [3] = biological target: Fuc(a1-2)[Gal(a1-3)]Gal(b1-4)GlcNAc
# Outline: as §1
# [4] = biological target: Fuc(a1-2)[Gal(a1-3)]Gal(b1-4)GlcNAc(b1-2)Man
# Outline: as §1
# [5] = biological target: Fuc(a1-2)[Gal(a1-3)]Gal(b1-4)GlcNAc(b1-2)Man(a1-3)[Fuc(a1-2)[Gal(a1-3)]Gal(b1-4)GlcNAc(b1-2)Man(a1-6)]Man(b1-4)GlcNAc(b1-4)GlcNAc
# Outline: as §1
# [6] = biological target: Fuc(a1-2)[Gal(a1-3)]Gal(b1-4)GlcNAc(b1-2)Man(a1-3)[Fuc(a1-2)[Gal(a1-3)]Gal(b1-4)GlcNAc(b1-2)Man(a1-6)]Man(b1-4)GlcNAc(b1-4)[Fuc(a1-6)]GlcNAc
# Outline: as §1
# [7] = biological target: Fuc(a1-2)[Gal(a1-3)]Gal(b1-4)GlcNAc(b1-3)GalNAc
# Outline: as §1
# [8] = biological target: Fuc(a1-2)[Gal(a1-3)]Gal(b1-4)GlcNAc(b1-3)[Fuc(a1-2)[Gal(a1-3)]Gal(b1-4)GlcNAc(b1-6)]GalNAc
# Outline: as §1
# [9] = biological target: Fuc(a1-2)[Gal(a1-3)]Gal(b1-4)GlcNAc(b1-6)GalNAc
# Outline: as §1
# [10] = biological target: Fuc(a1-2)[Gal(a1-3)]Gal(b1-4)[Fuc(a1-3)]Glc
# Outline: as §1
# [11] = biological target: Fuc(a1-2)[Gal(a1-3)]Gal(b1-4)[Fuc(a1-3)]GlcNAc
# Outline: as §1
# [12] = biological target: Fuc(a1-2)[Gal(a1-3)]Gal(b1-4)[Fuc(a1-3)]GlcNAc(b1-3)GalNAc
# Outline: as §1
# [13] = biological target: Fuc(a1-2)[Gal(a1-4)]Gal(b1-4)GlcNAc
# Outline: as §1
# [14] = biological target: Fuc(a1-2)[GalNAc(a1-3)]Gal
# Outline: as §1
# [15] = biological target: Fuc(a1-2)[GalNAc(a1-3)]Gal(b1-3)GalNAc(a1-3)[Fuc(a1-2)]Gal(b1-4)GlcNAc
# Outline: as §1
# [16] = biological target: Fuc(a1-2)[GalNAc(a1-3)]Gal(b1-3)GalNAc(b1-3)Gal(a1-4)Gal(b1-4)Glc
# Outline: as §1
# [17] = biological target: Fuc(a1-2)[GalNAc(a1-3)]Gal(b1-3)GlcNAc
# Outline: as §1
# [18] = biological target: Fuc(a1-2)[GalNAc(a1-3)]Gal(b1-3)GlcNAc(b1-2)Man(a1-3)[Fuc(a1-2)[GalNAc(a1-3)]Gal(b1-3)GlcNAc(b1-2)Man(a1-6)]Man(b1-4)GlcNAc(b1-4)GlcNAc
# Outline: as §1
# [19] = biological target: Fuc(a1-2)[GalNAc(a1-3)]Gal(b1-3)GlcNAc(b1-2)Man(a1-3)[Fuc(a1-2)[GalNAc(a1-3)]Gal(b1-3)GlcNAc(b1-2)Man(a1-6)]Man(b1-4)GlcNAc(b1-4)[Fuc(a1-6)]GlcNAc
# Outline: as §1
# [20] = biological target: Fuc(a1-2)[GalNAc(a1-3)]Gal(b1-3)GlcNAc(b1-3)GalNAc
# Outline: as §1
# [21] = biological target: Fuc(a1-2)[GalNAc(a1-3)]Gal(b1-3)GlcNAc(b1-6)GalNAc
# Outline: as §1
# [22] = biological target: Fuc(a1-2)[GalNAc(a1-3)]Gal(b1-4)Glc
# Outline: as §1
# [23] = biological target: Fuc(a1-2)[GalNAc(a1-3)]Gal(b1-4)GlcNAc
# Outline: as §1
# [24] = biological target: Fuc(a1-2)[GalNAc(a1-3)]Gal(b1-4)GlcNAc(b1-2)Man
# Outline: as §1
# [25] = biological target: Fuc(a1-2)[GalNAc(a1-3)]Gal(b1-4)GlcNAc(b1-2)Man(a1-3)[Fuc(a1-2)[GalNAc(a1-3)]Gal(b1-4)GlcNAc(b1-2)Man(a1-6)]Man(b1-4)GlcNAc(b1-4)GlcNAc
# Outline: as §1
# [26] = biological target: Fuc(a1-2)[GalNAc(a1-3)]Gal(b1-4)GlcNAc(b1-2)Man(a1-3)[Fuc(a1-2)[GalNAc(a1-3)]Gal(b1-4)GlcNAc(b1-2)Man(a1-6)]Man(b1-4)GlcNAc(b1-4)[Fuc(a1-6)]GlcNAc
# Outline: as §1
# [27] = biological target: Fuc(a1-2)[GalNAc(a1-3)]Gal(b1-4)GlcNAc(b1-3)Gal(b1-4)GlcNAc
# Outline: as §1
# [28] = biological target: Fuc(a1-2)[GalNAc(a1-3)]Gal(b1-4)GlcNAc(b1-3)Gal(b1-4)GlcNAc(b1-3)Gal(b1-4)GlcNAc
# Outline: as §1
# [29] = biological target: Fuc(a1-2)[GalNAc(a1-3)]Gal(b1-4)GlcNAc(b1-3)GalNAc
# Outline: as §1
# [30] = biological target: Fuc(a1-2)[GalNAc(a1-3)]Gal(b1-4)GlcNAc(b1-3)[Fuc(a1-2)[GalNAc(a1-3)]Gal(b1-4)GlcNAc(b1-6)]GalNAc
# Outline: as §1
# [31] = biological target: Fuc(a1-2)[GalNAc(a1-3)]Gal(b1-4)GlcNAc(b1-6)GalNAc
# Outline: as §1
# [32] = biological target: Fuc(a1-2)[GalNAc(a1-3)]Gal(b1-4)[Fuc(a1-3)]GlcNAc
# Outline: as §1
# [33] = biological target: Fuc(a1-2)[GalNAc(a1-3)]Gal(b1-4)[Fuc(a1-3)]GlcNAc(b1-3)GalNAc
# Outline: as §1
# [34] = biological target: Fuc(a1-2)[GalNAc(a1-4)]Gal(b1-4)GlcNAc
# Outline: as §1
# [35] = biological target: Fuc(a1-2)[GalNAc(b1-3)]Gal
# Outline: as §1
# Fuc(a1-3)GlcNAc = biological target: Fuc(a1-3)GlcNAc
# Outline: as §1
# [36] = biological target: Fuc(a1-3)[Gal(b1-4)]Glc6S
# Outline: as §1
binder,measurement,setting,value
PpFlo1 (Pichia pastoris) (protein) MGSSHHHHHHSSGLVPRGSHMQESGDGDISDSAYACDIDATRYDGFNATIYEFQPGDGRLTRDPVFMSTGYLNRTQLHSITGVTDPGFSIYTPGVPTTTLYGIPNVNWENLLLELKGYFRAEVSGDYGLSLRNIDDSAILFFGKETAFQCCNENSISNEASTDYSLFTIFRQEGDETTNLDSFTYTQYLEAGKYYPVRTFFVNIERHAVFNFTMTLPDGTELTDFHNYIYQFGALDEEQCQA,glycan array binding signal (z-score),[1],-0.381
same,glycan array binding signal (z-score),[2],-0.509
same,glycan array binding signal (z-score),[3],-0.455
same,glycan array binding signal (z-score),[4],0.18
same,glycan array binding signal (z-score),[5],0.149
same,glycan array binding signal (z-score),[6],-0.568
same,glycan array binding signal (z-score),[7],0.31
same,glycan array binding signal (z-score),[8],0.144
same,glycan array binding signal (z-score),[9],-0.228
same,glycan array binding signal (z-score),[10],-0.388
same,glycan array binding signal (z-score),[11],-0.266
same,glycan array binding signal (z-score),[12],1.04
same,glycan array binding signal (z-score),[13],0.178
same,glycan array binding signal (z-score),[14],-0.206
same,glycan array binding signal (z-score),[15],-0.222
same,glycan array binding signal (z-score),[16],-0.244
same,glycan array binding signal (z-score),[17],0.099
same,glycan array binding signal (z-score),[18],-0.146
same,glycan array binding signal (z-score),[19],-0.395
same,glycan array binding signal (z-score),[20],3.23
same,glycan array binding signal (z-score),[21],0.077
same,glycan array binding signal (z-score),[22],1.42
same,glycan array binding signal (z-score),[23],-0.475
same,glycan array binding signal (z-score),[24],-0.513
same,glycan array binding signal (z-score),[25],2.04
same,glycan array binding signal (z-score),[26],-0.285
same,glycan array binding signal (z-score),[27],-0.2
same,glycan array binding signal (z-score),[28],0.944
same,glycan array binding signal (z-score),[29],-0.501
same,glycan array binding signal (z-score),[30],-0.15
same,glycan array binding signal (z-score),[31],-0.194
same,glycan array binding signal (z-score),[32],-0.242
same,glycan array binding signal (z-score),[33],7.08
same,glycan array binding signal (z-score),[34],-0.177
same,glycan array binding signal (z-score),[35],-0.346
same,glycan array binding signal (z-score),Fuc(a1-3)GlcNAc,-0.469
same,glycan array binding signal (z-score),[36],1.15
